Laboratory results reported in US12269859B2, “Synthetic immune receptors and methods of use thereof” (Angeles Therapeutics, Inc., priority 2016, dated 2025).

Test system: target antigen-expressing cell line
Test: Jurkat NFAT-GFP assay, coculture with target cell lines expressing the respective target antigen (summary Table 10A)
Type: cell-based, human
Set-up: key: The signs +/−, +, 2+ etc. after the name of the cell lines indicate the relative degree of positivity on the Jurkat-NFAT-GFP assay as measured by the % GFP positive cells; +: relative degree of positivity on the Jurkat-NFAT-GFP assay as measured by the % GFP positive cells; 2+: relative degree of positivity on the Jurkat-NFAT-GFP assay as measured by the % GFP positive cells

B1: 111815-B05 (protein)
chain: MALPVTALLLPLALLLHAARPDEFVDNKFNKERYSAYYEIWQLPNLNVRQKAAFIGSLQDDPSQSANLLAEAKKLNDAQAPKLELEGKPIPNPLLGLDSTGSGEDLKNVFPPEVAVFEPSEAEISHTQKATLVCLATGFYPDHVELSWWVNGKEVHSGVCTDPQPLKEQPALNDSRYCLSSRLRVSATFWQNPRNHFRCQVQFYGLSENDEWTQDRAKPVTQIVSAEAWGRADCGFTSESYQQGVLSATILYEILLGKATLYAVLVSALVLMAMVKRKDSRGRAKRSGSGATNFSLLKQAGDVEENPGPTSMDWIWRILFLVGAATGAHSFEYAKEMRNAYWEIALLPNLTNQQKRAPIRKLYDDPSQSSELLSEAKKLNDSQTREQKLISEEDGSGIQNPDPAVYQLRDSKSSDKSVCLFTDFDSQTNVSQSKDSDVYITDKCVLDMRSMDFKSNSAVAWSNKSDFACANAFNNSIIPEDTFFPSPESSCDVKLVEKSFETDTNLNFQNLSVIGFRILLLKVAGFNLLMTLRLWSSRAKRSGSGVKQTLNFDLLKLAGDVESNPGPSRGHMTEYKPTVRLATRDDVPRAVRTLAAAFADYPATRHTVDPDRHIERVTELQELFLTRVGLDIGKVWVADDGAAVAVWTTPESVEAGAVFAEIGPRMAELSGSRLAAQQQMEGLLAPHRPKEPAWFLATVGVSPDHQGKGLGSAVVLPGVEAAERAGVPAFLETSAPRNLPFYERLGFTVTADVEVPEGPRTWCMTRKPGA
modifications: Polynucleotide encoding a Synthetic Immune Receptor (SIR)
NFAT-GFP ASSAY Positive Cell lines (coculture with LoVo cells): LoVo (+), OVCAR3
NFAT-GFP ASSAY Positive Cell lines (coculture with OVCAR3 (also printed 0VCAR3) cells): (+)
